Measured values: PubChem BioAssay AID485294 (National Center for Advancing Translational Sciences (NCATS), 2010)
Where “and” joins values, the source holds several entries; their conditions need not be identical. Identical values can stand only once. Hit rate of the full screen: of about 370,000 compounds, about 150 (0.041%) were called active. Inconclusive results, whose numbers are uncertain, are shown with a selection of clear calls. Calls come from the whole dose curve; as a rule, active = well fitted inhibition curve with a large enough effect; inconclusive = small, poorly fitted or top-dose-only effect; inactive = flat fitted curve, though single readings scatter. A potency beside an inconclusive call is a rough fit, not a confirmed value.

target: Beta-lactamase (Escherichia coli (strain K12)) (UniProt P00811); experiment: qHTS Inhibitors of AmpC Beta-Lactamase (assay with detergent); settings: AmpC hydrolysis of nitrocefin, absorbance 480 nm, 0.01% Triton; activity change, negative = inhibition: at 114 µM (top of the series); note: nearly all actives have a fitted effect of over 25% in size;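 for activity change, negative = inhibition: 0% = no-compound wells and -100% = no-enzyme wells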
Sequence of UniProt P00811 (P00811 whole entry, looked up): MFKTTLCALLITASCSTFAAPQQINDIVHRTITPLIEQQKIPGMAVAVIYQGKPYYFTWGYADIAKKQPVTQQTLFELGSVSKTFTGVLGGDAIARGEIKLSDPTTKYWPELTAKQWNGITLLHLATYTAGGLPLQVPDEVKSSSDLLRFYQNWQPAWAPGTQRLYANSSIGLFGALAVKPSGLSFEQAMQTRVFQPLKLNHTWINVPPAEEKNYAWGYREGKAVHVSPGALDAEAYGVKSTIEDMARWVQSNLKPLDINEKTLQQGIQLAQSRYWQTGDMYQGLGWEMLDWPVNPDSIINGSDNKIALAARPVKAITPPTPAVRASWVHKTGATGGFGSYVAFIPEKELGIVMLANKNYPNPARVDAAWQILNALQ
Outline: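 AmpC (5.3 nM in the dispensed reagent) in 20 mM phosphate pH 7.0 with 0.01% (detergent screen) or 0.0001% Triton X-100 was preincubated with compounds for 15 min at room temperature. Nitrocefin was then added from an 800 uM solution, and hydrolysis was followed at 480 nm.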
Potency is the fitted concentration of half-maximal effect; tags give direction and shape of the fitted curve.

**Q.** Which Potency does the source give for Cn1c(Cc2cccs2)nnc1SCC(=O)Nc1ccccc1F here?
**A.** inconclusive: 112 µM [inhibitor, partial curve, poor fit]

**Q.** Which “activity change, negative = inhibition” value does the source give for Cc1ccc(S(=O)(=O)N2c3ccccc3OCC2c2ccccc2)cc1 (stereo unspecified) here?
**A.** inactive: -4.57%

**Q.** How did the “activity change, negative = inhibition” value turn out when NC(=O)Nn1c(CCC(=O)O)ccc1-c1ccc(F)cc1 was run?
**A.** inactive: 0.884%

**Q.** For Cc1c(NC(=S)NC(=O)C(C)(C)C)cccc1[N+](=O)[O-], which Potency is on record?
**A.** inconclusive: 89.1 µM [inhibitor, single point]

**Q.** With O=S(=O)(c1cccc(C(F)(F)F)c1)N1CCC(O)(c2cccnc2)CC1 as the compound, how does the Potency read?
**A.** inconclusive: 0.891 µM [inhibitor, full curve]

**Q.** For CC(C)CC(NC(=O)C1CCCCC1)C(=O)N1CCN(c2ccccn2)CC1 (stereo unspecified), which Potency is on record?
**A.** inconclusive: 22.4 µM [inhibitor, full curve, poor fit]

**Q.** O=C(CNC(=O)c1cccc(OC(F)F)c1)OCn1nnc2ccccc2c1=O was tested. Which Potency did it give?
**A.** inconclusive: 3.55 µM [inhibitor, single point]

**Q.** CCN(c1ccccc1)S(=O)(=O)c1ccc(C(=O)N(CCCN(C)C)c2nc3c(C)cccc3s2)cc1 was tested. Which “activity change, negative = inhibition” value did it give?
**A.** inactive: -7.06%

**Q.** Which “activity change, negative = inhibition” value does the source give for N#C/C(=C\c1ccc(OCC(N)=O)cc1)c1ccccc1 here?
**A.** inactive: -5.39%

**Q.** Which Potency does the source give for CCOC(=O)c1sc2nc3n(c(=O)c2c1C)CCCCC3 here?
**A.** inconclusive: 2.51 µM [inhibitor, full curve, poor fit]

**Q.** With O=C(COC(=O)c1ccccn1)NNC(=O)c1ccc([N+](=O)[O-])cc1 as the compound, how does the Potency read?
**A.** inconclusive: 0.631 µM [inhibitor, full curve]

**Q.** Cc1ccc(CCNC(=O)c2cccc(Nc3nc4ccccc4nc3-n3nc(C)cc3C)c2)cc1 was tested. Which “activity change, negative = inhibition” value did it give?
**A.** inactive: 0.742%

**Q.** With CCCN(CCC)S(=O)(=O)c1cc(Br)cc2c1N(C(=O)CC)CC2 as the compound, how does the “activity change, negative = inhibition” value read?
**A.** inactive: -1.15%

**Q.** CCC(C(=O)Nc1c(C)cc(C)cc1C)N1CCCCCC1 (stereo unspecified) was tested. Which Potency did it give?
**A.** inconclusive: 50.1 µM [inhibitor, partial curve]

**Q.** Which Potency does the source give for COc1cc(C2C(C#N)=C(N)OC3=C2C(=O)CC(C)(C)C3)ccc1OC(=O)N1CCOCC1 (stereo unspecified) here?
**A.** inconclusive: 3.16 µM [inhibitor, full curve]

**Q.** CN(CC(=O)N1CCN(Cc2ccccc2)CC1)S(=O)(=O)c1ccc(F)cc1 was tested. Which “activity change, negative = inhibition” value did it give?
**A.** inactive: -8.24%

**Q.** With Cc1ccc(S(=O)(=O)N2CCCCC2)cc1C(=O)Nc1ncn[nH]1 as the compound, how does the Potency read?
**A.** inconclusive: 0.562 µM [inhibitor, full curve, poor fit]

**Q.** With CCOC(=O)c1c(NC(=O)C(=O)N/N=C/c2ccccc2O)sc2c1CCCCC2 as the compound, how does the Potency read?
**A.** inconclusive: 100 µM [inhibitor, single point]

**Q.** CCOc1cc(CNc2cccc3[nH]c(C)nc23)ccc1OC was tested. Which Potency did it give?
**A.** inconclusive: 100 µM [inhibitor, single point]

**Q.** How did the Potency turn out when CCCN(CC1CC1)S(=O)(=O)c1ccc(S(N)(=O)=O)cc1 was run?
**A.** inconclusive: 10 µM [inhibitor, partial curve, poor fit]

**Q.** How did the Potency turn out when OCc1ccc2c(c1)c(-c1ccc3c(c1)OCCO3)c(-c1ccccc1)n2-c1ccccc1 was run?
**A.** inconclusive: 100 µM [inhibitor, single point]

**Q.** Which Potency does the source give for O=C(O)CCC(=O)c1c[nH]c2ccccc12 here?
**A.** inconclusive: 28.2 µM [inhibitor, full curve, poor fit]

**Q.** For O=C(c1ccc2c(c1)OCO2)N1CCCN(C(=O)c2ccc3c(c2)OCO3)CC1, which Potency is on record?
**A.** inconclusive: 0.891 µM [inhibitor, full curve]

**Q.** For CC1(C)CC(O)C(C)(C)N1O (stereo unspecified), which Potency is on record?
**A.** inconclusive: 100 µM [inhibitor, partial curve, poor fit]

**Q.** Which “activity change, negative = inhibition” value does the source give for O=C(NCC1CCCCC1)c1ccc(F)c(S(=O)(=O)N2CCOCC2)c1 here?
**A.** inactive: -2.36%

**Q.** With CCC(C)c1ccc(NC(=S)NCc2cccnc2)cc1 (stereo unspecified) as the compound, how does the Potency read?
**A.** inconclusive: 63.1 µM [inhibitor, partial curve]

**Q.** Which “activity change, negative = inhibition” value does the source give for CCn1c(C)nc2cc(-c3nc4n(n3)Cc3ccccc3-4)ccc21 here?
**A.** inactive: -4.26%

**Q.** For CCN(CC(=O)Nc1ccc(NC(C)=O)cc1)C(=O)c1ccc2c(c1)OCCO2, which Potency is on record?
**A.** inconclusive: 4.47 µM [inhibitor, full curve, poor fit]

**Q.** How did the Potency turn out when O=C(CCN1C(=O)c2ccccc2C1=O)NCc1ccco1 was run?
**A.** inconclusive: 0.708 µM [inhibitor, full curve, poor fit]

**Q.** How did the “activity change, negative = inhibition” value turn out when Cn1c(SCCCC(=O)c2ccccc2)nnc1-c1ccncc1 was run?
**A.** inactive: -13.1%

**Q.** COc1cccc(CNc2ccc(N3CCC(C)CC3)cc2)c1OC was tested. Which “activity change, negative = inhibition” value did it give?
**A.** inactive: 1.6%

**Q.** CCCCCOC(=O)c1[nH]c2c(c1C)C(=O)CC(c1ccco1)C2 (stereo unspecified) was tested. Which “activity change, negative = inhibition” value did it give?
**A.** inactive: 1.44%

**Q.** CC1=CC(=O)c2ccccc2C1=O was tested. Which Potency did it give?
**A.** inactive and inconclusive: 5.62 µM [inhibitor, full curve, poor fit]

**Q.** With CC(=O)c1nn(-c2cccc(Br)c2)cc1C(=O)c1ccc2ccccc2c1 as the compound, how does the Potency read?
**A.** inconclusive: 0.631 µM [inhibitor, full curve, poor fit]

**Q.** Which Potency does the source give for O=C(CNC(=O)c1cccc(Cl)c1)NCCCSc1ccccc1 here?
**A.** inconclusive: 50.1 µM [inhibitor, partial curve, poor fit]

**Q.** With CCCCN(C(=O)COC(=O)c1ccc(C=O)cc1)c1c(N)n(CCC)c(=O)[nH]c1=O as the compound, how does the Potency read?
**A.** inconclusive: 3.98 µM [inhibitor, full curve, poor fit]

**Q.** For C=Cc1ccc(Cn2c(C(=O)O)c(CNCc3ccccc3)c3ccc(OC)cc32)cc1, which “activity change, negative = inhibition” value is on record?
**A.** inactive: -9.62%

**Q.** How did the Potency turn out when COc1ccccc1NC(=S)NCCC(c1ccccc1)c1ccccc1 was run?
**A.** inconclusive: 112 µM [inhibitor, partial curve, poor fit]

**Q.** O=C(c1ccc(-n2cnnn2)cc1)N(C1CCCCC1)C1CCCCC1 was tested. Which Potency did it give?
**A.** inconclusive: 10 µM [inhibitor, partial curve, poor fit]

**Q.** How did the Potency turn out when CC1(C)Cc2c(sc(NC(=O)C(=O)N3CCCC3)c2C(N)=O)CO1 was run?
**A.** inconclusive: 70.8 µM [inhibitor, partial curve, poor fit]

**Q.** Which “activity change, negative = inhibition” value does the source give for O=C(NC(=S)Nc1c(F)cc(F)cc1Br)c1ccc2c(c1)OCCO2 here?
**A.** inactive: -7.46%

**Q.** For C/C(=N\Nc1ccc([N+](=O)[O-])cc1)c1ccc(O)cc1, which Potency is on record?
**A.** inconclusive: 112 µM [inhibitor, partial curve, poor fit]

**Q.** For COc1ccc(C(=O)O)cc1NCc1ccc(C)s1, which Potency is on record?
**A.** inconclusive: 0.631 µM [inhibitor, full curve, poor fit]

**Q.** With O=C(CS(=O)CC(=O)N(c1ccccc1)C(C(=O)NC1CCCCC1)c1ccco1)Nc1ccc(F)cc1 (stereo unspecified) as the compound, how does the Potency read?
**A.** inconclusive: 89.1 µM [inhibitor, single point]

**Q.** CC(C)CN(Cc1cc2ccccc2[nH]c1=O)C(=O)c1cccnc1 was tested. Which Potency did it give?
**A.** inconclusive: 4.47 µM [inhibitor, full curve, poor fit]

**Q.** Which “activity change, negative = inhibition” value does the source give for Cc1cc(C)n(/C(=C\N(C)C)C(=O)c2ccc(Cl)cc2)n1 here?
**A.** inactive: 1.9%

**Q.** For O=C(Nc1ccc2nc3ccccc3nc2c1)c1ccccc1, which Potency is on record?
**A.** inconclusive: 0.631 µM [inhibitor, full curve, poor fit]

**Q.** For Cc1cc(C)c(S(=O)(=O)NCC23C=CC(O2)C2C(=O)N(c4ccccc4)C(=O)C23)c(C)c1 (stereo unspecified), which “activity change, negative = inhibition” value is on record?
**A.** inactive: -15.2%

**Q.** With COc1ccc(/C(C)=N\Nc2nc(-c3ccc(Cl)cc3)cc(C(F)(F)F)n2)cc1OC as the compound, how does the Potency read?
**A.** inconclusive: 25.1 µM [inhibitor, partial curve]

**Q.** NC(=O)C1CCN(CCC(=O)Nc2ccc(F)c(F)c2)CC1 was tested. Which Potency did it give?
**A.** inconclusive: 50.1 µM [inhibitor, partial curve, poor fit]

**Q.** How did the Potency turn out when COc1ccc(C(=O)Oc2cc(/C=N/NC(N)=S)ccc2OC)cc1 was run?
**A.** inconclusive: 1.26 µM [inhibitor, full curve, poor fit]

**Q.** For COc1ccc(OCc2nc3ccc(S(=O)(=O)Nc4ccccc4Cl)cc3[nH]2)cc1, which “activity change, negative = inhibition” value is on record?
**A.** inactive: -1.02%

**Q.** With CCOCCc1nn2c(=O)cc(COC(=O)CNC(=O)c3ccc(F)cc3)nc2s1 as the compound, how does the “activity change, negative = inhibition” value read?
**A.** inactive: 9.78%

**Q.** How did the Potency turn out when O=C1ON=C(c2ccccc2)/C1=C/c1ccc(-c2ccccc2[N+](=O)[O-])o1 was run?
**A.** inconclusive: 89.1 µM [inhibitor, single point]

**Q.** Which Potency does the source give for Brc1ccc(-c2nnc3n2C2(CCCC2)Cc2ccccc2-3)o1 here?
**A.** inconclusive: 70.8 µM [inhibitor, partial curve, poor fit]

**Q.** Cc1cc(N2CCCCC2)n2nc(C)c(-c3ccccc3)c2n1 was tested. Which Potency did it give?
**A.** inconclusive: 10 µM [inhibitor, full curve]

**Q.** Which “activity change, negative = inhibition” value does the source give for CCN(CC(=O)Nc1cccc(OC)c1)C(=O)c1ccco1 here?
**A.** inactive: -0.597%

**Q.** Cc1ccccc1NC(=O)CN(c1ccc(F)cc1)S(C)(=O)=O was tested. Which Potency did it give?
**A.** inconclusive: 0.631 µM [inhibitor, full curve]

**Q.** With Cc1ccc2nc(-c3ccncc3)c(Nc3ccc(C(C)C)cc3)n2c1 as the compound, how does the “activity change, negative = inhibition” value read?
**A.** inactive: 11.4%

**Q.** CCCCCCCCOC(=O)C1=C(C)Nc2nnnn2C1c1cccs1 (stereo unspecified) was tested. Which Potency did it give?
**A.** inconclusive: 3.16 µM [inhibitor, full curve, poor fit]

**Q.** For CCC(C)NC(=O)CSC1=Nc2ccccc2C2=NC(CC(=O)NCc3ccccc3)C(=O)N12 (stereo unspecified), which Potency is on record?
**A.** inconclusive: 79.4 µM [inhibitor, partial curve, poor fit]

**Q.** Which Potency does the source give for COCCOC(=O)c1c(C)nc(SCC(=O)Nc2ccc(OC)cc2)c(C#N)c1-c1ccco1 here?
**A.** inconclusive: 5.62 µM [inhibitor, full curve]

**Q.** Which Potency does the source give for O=c1c(C=NCc2cccs2)c(O)n(C2CCCCC2)c(=O)n1C1CCCCC1 here?
**A.** inconclusive: 89.1 µM [inhibitor, partial curve, poor fit]

**Q.** How did the Potency turn out when CSc1nnc2ccc(-c3ccccn3)nn12 was run?
**A.** inconclusive: 1.78 µM [inhibitor, full curve, poor fit]

**Q.** With Cc1ccc(CNC(=O)CCNC(=O)c2ccc(Br)o2)cc1 as the compound, how does the Potency read?
**A.** inconclusive: 0.631 µM [inhibitor, full curve, poor fit]

**Q.** Which Potency does the source give for CCOc1ccc(CCNC(=O)c2nnc(CS(=O)(=O)c3ccccc3)o2)cc1OCC here?
**A.** inconclusive: 56.2 µM [inhibitor, partial curve, poor fit]
